# Measurements published in publication PMC4336329 (PLoS ONE, 2015).
# About 2,200 (0.71%) of roughly 310,000 compounds showed an effect of 50% or more. The effect is printed as a negative number. This is one part of the list.
# Target: human ether-à-go-go-related gene (hERG) potassium channel (human, UniProt Q12809)
# Test: primary screen, population patch clamp on CHO cells stably expressing hERG
# Chain of human ether-à-go-go-related gene (hERG) potassium channel (Q12809 whole entry, looked up): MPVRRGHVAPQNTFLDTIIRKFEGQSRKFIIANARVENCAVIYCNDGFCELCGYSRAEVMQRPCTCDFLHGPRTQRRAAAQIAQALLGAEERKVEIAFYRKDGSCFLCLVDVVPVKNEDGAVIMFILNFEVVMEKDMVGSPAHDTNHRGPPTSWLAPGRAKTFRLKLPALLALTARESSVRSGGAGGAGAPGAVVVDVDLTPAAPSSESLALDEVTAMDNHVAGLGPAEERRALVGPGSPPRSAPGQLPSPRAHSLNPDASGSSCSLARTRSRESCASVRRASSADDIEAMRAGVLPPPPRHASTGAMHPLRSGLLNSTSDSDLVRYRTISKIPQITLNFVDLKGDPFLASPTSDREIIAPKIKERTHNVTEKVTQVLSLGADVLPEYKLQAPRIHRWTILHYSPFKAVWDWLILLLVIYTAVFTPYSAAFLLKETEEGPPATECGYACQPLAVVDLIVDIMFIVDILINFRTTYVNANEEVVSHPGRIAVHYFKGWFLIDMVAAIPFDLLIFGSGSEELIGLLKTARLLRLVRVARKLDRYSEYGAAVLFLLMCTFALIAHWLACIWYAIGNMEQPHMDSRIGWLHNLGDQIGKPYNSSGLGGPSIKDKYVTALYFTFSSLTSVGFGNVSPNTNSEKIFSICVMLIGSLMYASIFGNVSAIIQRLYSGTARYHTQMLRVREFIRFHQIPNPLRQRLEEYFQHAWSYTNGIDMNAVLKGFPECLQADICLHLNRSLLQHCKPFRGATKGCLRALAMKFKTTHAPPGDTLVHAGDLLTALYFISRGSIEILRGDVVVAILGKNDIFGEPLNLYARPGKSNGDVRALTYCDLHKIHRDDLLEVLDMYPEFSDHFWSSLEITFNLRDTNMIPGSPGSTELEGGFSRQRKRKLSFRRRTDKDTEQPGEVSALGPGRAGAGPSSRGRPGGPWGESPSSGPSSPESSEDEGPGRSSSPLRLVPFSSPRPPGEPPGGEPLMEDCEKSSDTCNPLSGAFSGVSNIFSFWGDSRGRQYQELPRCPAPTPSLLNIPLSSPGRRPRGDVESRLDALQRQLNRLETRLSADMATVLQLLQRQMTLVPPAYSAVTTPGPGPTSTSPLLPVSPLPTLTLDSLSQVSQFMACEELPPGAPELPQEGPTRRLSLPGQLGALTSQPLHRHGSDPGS
row,Compound,"hERG current change (%, negative = inhibition) at 1uM [%]"
1,CCOc1cc(/C=C2/SC(=S)N(Cc3ccccc3)C2=O)ccc1O,11.3
2,Clc1ccc(SCCCCn2ccnc2)cc1,-19
3,CN(C(=O)c1ccc(NC(=O)Cc2ccc(NC(=O)C3CCCN(C(=O)C4CCCC4)C3)cc2)cc1)C1CC1 (stereo not drawn),13.3
4,O=C(NCCNC1CCC(c2ccccc2)CC1)c1ccc(F)cc1 (stereo not drawn),-11.5
5,COc1ccc2c(c1)CCC1C2=NN(/C(C)=C/C(C)=O)C1c1cccc(F)c1 (stereo not drawn),14.1
6,CC(C)(C)NC(=O)NC(=O)CN1CCN(c2ccccc2O)CC1,14.9
7,Cc1c(C(=O)NN2CCN(C)CC2)cccc1[N+](=O)[O-],8.23
8,C#CCn1cnc2c(oc3ccccc32)c1=O,18.1
9,Cc1cccc(NC(=O)CCc2ccccc2)c1,3
10,O=C(COC(=O)CSc1ccc2ccccc2c1)Nc1ccccc1OC(F)F,4.9
11,Cc1ccc(S(=O)(=O)N2CCCC(C(=O)NCCC(C)C)C2)cc1 (stereo not drawn),-9.45
12,COc1ccc(Cl)cc1NC(=O)CN(C)C(=O)c1cc(-c2ccncc2)nc2ccccc12,14
13,CCc1c(C)c2nncn2[nH]c1=O,4.98
14,FC(F)(F)Oc1ccc(-c2cn3cccnc3n2)cc1,14.8
15,CC(C)(C)NC(=O)c1ccc2c(c1)N(CC(=O)N1CCCC1)C(=O)C(C)(C)O2,12.1
16,COC(=O)c1cc(S(=O)(=O)N2CCN(c3ccccc3F)CC2)c[nH]1,9.94
17,Cc1coc(C)c1C(=O)CC1(O)C(=O)N(C)c2ccc(Cl)cc21 (stereo not drawn),8.24
18,COc1ccc(CCNS(=O)(=O)c2cccc(C(=O)O)c2)cc1OC,9.7
19,CCCc1cc(=O)[nH]c(SCC(=O)c2c(C)[nH]c3ccccc23)n1,0.976
20,Cc1cn([C@@H](CCCCNC(=O)OC(C)(C)C)C(=O)NCCCCCCCCCCC(=O)N2CCN(C(=O)OC(C)(C)C)CC2)nn1,15.5
21,CCOC(=O)N1CCN(C(=O)c2ccc(N(Cc3ccc(Cl)cc3)S(C)(=O)=O)cc2)CC1,3.09
22,CN(C)/C=C(\C#N)C(=O)Nc1ccccc1,12.6
23,COCCN(C(=O)c1ccc(OCC(C)C)cc1)c1c(N)n(Cc2ccccc2)c(=O)[nH]c1=O,20.5

row,Compound,"hERG current change (%, negative = inhibition) at 1uM [%]"
1,Cc1ccc(CNS(=O)(=O)c2ccc3c(c2)C(C)(C)C(=O)N3C)cc1,7.06
2,CCC(=O)NCCCOc1ccccc1,12.3
3,COc1ccc(NC(=O)CSc2nnc(Cn3c(=O)sc4ccccc43)n2C)cc1OC,6.6
4,CCS(=O)(=O)N1N=C(c2cccs2)CC1c1cc2cc(C)ccc2nc1Cl (stereo not drawn),0.868
5,COc1ccc(OC)c(NC(=O)COc2ccc3c(c2)CCC3)c1,9.63
6,Cc1ccccc1Nc1nc(N)nc(COC(=O)C2CCCCC2)n1,7.57
7,CCCNC(=S)N1CCC(C(=O)c2ccc(Cl)cc2)CC1,0.396
8,CCn1c(=O)c(C(=O)Nc2ccc(C)cc2C)c(O)c2ccccc21,9.46
9,Cc1ccc(/C=N/NC(=O)NC23CC4CC(CC(C4)C2)C3)o1,11.7
10,CC(C)n1c(-c2ccco2)csc1=Nc1cccnc1,8.43
11,Cc1ccc(C)c(S(=O)(=O)Nc2cc3c4c(c2)CC(=O)N4CCC3)c1,0.497
12,CC(=O)c1c(C(C)=O)c(C)n(NC(=O)c2ccccc2O)c1C,3.31
13,Oc1ccc(-c2ccccc2)cc1CN1CCCCCC1,2.54
14,CCOc1c(CNCCN2CCOCC2)cccc1OC.Cl,1.27
15,O=C(COC(=O)c1ccccc1Br)NCCC1=CCCCC1,12.7
16,CC(=O)N1CCSc2ccc(S(=O)(=O)NCCc3ccc(Cl)cc3)cc21,19.7
17,C#CCNC(=O)C1=C[C@@H](c2ccccc2)C[C@@H](OCc2ccc(CO)cc2)O1,5.86
18,CCN(Cc1nc2ccccc2c(=O)[nH]1)Cc1cc(=O)oc2cc(C)c(C)cc12,-25.2
19,Cc1nc2ccccc2c2oc(C(=O)NCCCN3CCCC(C)C3)cc12 (stereo not drawn),3.47
20,CC(=O)c1cccc(OCC(O)CNCC2COc3ccccc3O2)c1.O=C(O)C(=O)O (stereo not drawn),5.96
21,COC(=O)c1ccccc1NC(=O)CC#N,7.85
22,COc1ccc(N2CCN(CCNC(=O)Nc3ccc(C)c(Cl)c3)CC2)cc1,12
23,Cc1cc(C)c(NC(=O)Cn2c(=O)n(Cc3ccco3)c(=O)c3ccccc32)c(C)c1,15

row,Compound,"hERG current change (%, negative = inhibition) at 1uM [%]"
1,COc1ccc(/C=C/C(=O)Nc2cc(C)nn2-c2nc3ccccc3n2Cc2cccc([N+](=O)[O-])c2)cc1,7.2
2,COc1cc(C(=O)N2c3ccccc3CC2C)cc(OC)c1OC (stereo not drawn),12.8
3,COc1ccc(Nc2cc(C)c3cc([N+](=O)[O-])ccc3n2)cc1,9
4,Cc1nn(-c2ccccc2)c(C)c1[N+](=O)[O-],0.921
5,COC(=O)c1scc(C)c1NC(=O)Nc1ccccc1,1.55
6,O=C(COC(=O)c1cc(Cl)ccc1O)NCCC1=CCCCC1,11.8
7,Cc1ccc(C(=O)OCC(=O)Nc2ccccc2C(F)(F)F)cc1S(=O)(=O)N1CCOCC1,6.76
8,CCCCP(=O)(CCCC)Cc1ccccc1O,11.6
9,COCCCNc1nc2c(-c3ccc(Cl)cc3)nnn2c2ccccc12,-4.36
10,N#CCc1c(C#N)c(N)nc(N2CCN(C=O)CC2)c1C#N,-7.03
11,Cc1csc2c(N3CCN(C(=O)Nc4ccc(Cl)c(Cl)c4)CC3)ncnc12,10.9
12,O=C(Nc1cccc2nsnc12)c1cccnc1Cl,-14.2
13,Cc1onc(-c2c(Cl)cccc2Cl)c1/C(N)=N/OC(=O)C(C)(C)C,18.2
14,CCOC(=O)C1=C(COC(=O)/C=C/c2ccc(O)c(OC)c2)NC(=O)NC1C (stereo not drawn),9.97
15,CCOC(=O)Cc1csc(NC(=O)c2c(C)noc2C)n1,9.73
16,O=C(NN1C(=O)C2C3C=CC(C4CC34)C2C1=O)c1cccc(Cl)c1 (stereo not drawn),8.39
17,CCC(=O)N1CCc2cc(S(=O)(=O)Nc3ccccc3C)ccc21,16.6
18,Nc1ccc(-c2cc3ccccc3oc2=O)cc1,14
19,COc1cccc(C(=O)NCCC2=CCCCC2)c1OC,7.33
20,CC(C)(C)c1ccc(OCCCN2CCCC2)cc1,-10.1
21,CN(C)CCOC(=O)Cc1ccc(Cl)cc1.Cl,-5.82
22,COc1ccc(-n2nc(C(=O)NCC(=O)N3CCC4(CC3)OCCO4)c3ccccc3c2=O)cc1OC,7.46
23,CCCc1cc(C(=O)Nc2ccc(C#N)cc2)no1,7.15

row,Compound,"hERG current change (%, negative = inhibition) at 1uM [%]"
1,COc1ccc(/C=N/NC(=O)c2[nH]c(C)c(C(=O)N/N=C/c3ccc(OC)cc3)c2C)cc1,0.18
2,COC(=O)C(Cc1cnc(Cl)s1)(C(=O)OC)c1ccc(C(F)(F)F)cc1[N+](=O)[O-],11.7
3,CC(C)c1nc(SCC(=O)Nc2ccc(N3CCOCC3)cc2)c2ccccc2n1,2.09
4,N#CCCN(C(=O)COC(=O)CNC(=O)c1cccs1)c1ccc(F)cc1,-18.2
5,COc1ccc2cc(C(=O)C3CCCN(C(=O)C4=NN(C)C(=O)CC4)C3)ccc2c1 (stereo not drawn),1.78
6,CCN(CC(=O)Nc1ccc2c(c1)OCCO2)C(=O)c1cccc(S(=O)(=O)N2CCOCC2)c1,11.3
7,CCC(=O)Nc1nnc(CSCc2ccccc2)s1,5.46
8,Nc1c(Cl)cc(-c2csc(N3CCCC3c3nc4cc(Cl)c(Cl)cc4n3CCCO)n2)cc1Cl (stereo not drawn),9.5
9,COc1cccc(OCc2cc(C(=O)NC3CCOCC3)no2)c1,17.9
10,NS(=O)(=O)c1cccc(NC(=O)CCCNC(=O)c2ccc(Cl)cc2)c1,7.93
11,O=c1oc2ccccc2c(Nc2ccc3ccccc3c2)c1[N+](=O)[O-],5.46
12,CCOC(=O)C1CCN(C(=O)/C=C/c2cc(OC)c(OC)c(OC)c2)CC1,12.1
13,Cc1c(NC2=C(Cl)C(=O)N(c3ccccc3Cl)C2=O)c(=O)n(-c2ccccc2)n1C,4.96
14,COc1ccc(NC(=O)COC(=O)CC2CCCCC2)cc1,5.46
15,CC(C)(C)c1ccccc1NC(=O)Cn1cnc2cc([N+](=O)[O-])ccc2c1=O,2.29
16,O=C(Nc1ccc(N2CCOCC2)cc1N1CCOCC1)c1ccco1,9.41
17,O=S(=O)(/N=C(\Sc1ccc(Cl)cc1)c1ccccc1)c1ccccc1,9.56
18,Cc1cccc(OCCCN2CCCCCC2)c1,-8.41
19,Nc1ccccc1C(=O)NC1CCCCNC1=O (stereo not drawn),4.7
20,CC(Sc1ccc(S(=O)(=O)N2CCOCC2)cc1[N+](=O)[O-])C(=O)O (stereo not drawn),8.37
21,CCc1ccccc1NC(=O)CC(c1ccc(OC)cc1)n1cccc1 (stereo not drawn),3.44
